Measured values reported in patent US9486506B2 (Novo Nordisk A/S, priority 2011, dated 2016).
At least one structure is not confirmed: it was looked up by name or label, or the drawing left a doubt. Numbered stars: 1 amine (or outer) side, 2 acyl side, 3 side chain; on linkers, the order of the positions; unused ones are H or OH. Side chains are listed from the residue outwards. Peptide text beside a SMILES is read from it. * marks the point of attachment. C18 diacid = O=C(O)CCCCCCCCCCCCCCCCC(=O)*; γGlu = O=C(O)[C@H](CCC(=O)[*:2])N[*:1]; AEEA = NCCOCCOCC(=O)O

Experiment: Assay (II) ThT fibrillation assay for physical stability
Format: physicochemical
Conditions: pH 7.5

| SMILES | ThT assay [Lagtime] [h] |
| --- | --- |
| CC(C)C[C@H](NC(=O)[C@H](CC(=O)O)NC(=O)[C@H](CC(C)C)NC(=O)[C@H](Cc1ccc(O)cc1)NC(=O)[C@H](CCCCN)NC(=O)[C@H](CO)NC(=O)[C@H](Cc1ccc(O)cc1)NC(=O)[C@H](CC(=O)O)NC(=O)[C@H](CO)NC(=O)[C@@H](NC(=O)[C@H](Cc1ccccc1)NC(=O)[C@@H](NC(=O)CNC(=O)[C@H](CCC(N)=O)NC(=O)[C@H](CO)NC(=O)[C@@H](N)Cc1c[nH]cn1)[C@@H](C)O)[C@@H](C)O)C(=O)N[C@@H](CCCNC(=N)N)C(=O)N[C@@H](CCCNC(=N)N)C(=O)N[C@@H](C)C(=O)N[C@@H](CCC(N)=O)C(=O)N[C@@H](CC(=O)O)C(=O)N[C@@H](Cc1ccccc1)C(=O)N[C@H](C(=O)N[C@@H](CCCCNC(=O)CC[C@H](NC(=O)CC[C@H](NC(=O)COCCOCCNC(=O)COCCOCCNC(=O)CC[C@H](NC(=O)CCCCCCCCCCCCCCC(=O)O)C(=O)O)C(=O)O)C(=O)O)C(=O)N[C@@H](Cc1c[nH]c2ccccc12)C(=O)N[C@@H](CC(C)C)C(=O)N[C@@H](CC(C)C)C(=O)N[C@@H](CO)C(=O)N[C@H](C(=O)O)[C@@H](C)O)C(C)C [Example 85, N^ε24-[(4S)-4-carboxy-4-[[(4S)-4-carboxy-4-[[2-[2-[2-[[2-[2-[2-[[(4S)-4-carboxy-4-(15-carboxypentadecanoylamino)butanoyl]amino]ethoxy]ethoxy]acetyl]amino]ethoxy]ethoxy]acetyl]amino]butanoyl]amino]butanoyl]-[Leu16,Lys24,Leu27,Ser28]-Glucagon] | 45 |
| CC(C)C[C@H](NC(=O)[C@H](Cc1ccc(O)cc1)NC(=O)[C@H](CCCCN)NC(=O)[C@H](CO)NC(=O)[C@H](Cc1ccc(O)cc1)NC(=O)[C@H](CC(=O)O)NC(=O)[C@H](CO)NC(=O)[C@@H](NC(=O)[C@H](Cc1ccccc1)NC(=O)[C@@H](NC(=O)CNC(=O)[C@H](CCC(N)=O)NC(=O)[C@H](CO)NC(=O)[C@@H](N)Cc1c[nH]cn1)[C@@H](C)O)[C@@H](C)O)C(=O)N[C@@H](CCC(=O)O)C(=O)N[C@@H](CO)C(=O)N[C@@H](CCCNC(=N)N)C(=O)N[C@@H](CCCNC(=N)N)C(=O)N[C@@H](C)C(=O)N[C@@H](CCC(N)=O)C(=O)N[C@@H](CCC(=O)O)C(=O)N[C@@H](Cc1ccccc1)C(=O)N[C@H](C(=O)N[C@@H](CCCCNC(=O)CC[C@H](NC(=O)CC[C@H](NC(=O)CC[C@H](NC(=O)CC[C@H](NC(=O)CCCCCCCCCCCCCCCCC(=O)O)C(=O)O)C(=O)O)C(=O)O)C(=O)O)C(=O)N[C@@H](Cc1c[nH]c2ccccc12)C(=O)N[C@@H](CC(C)C)C(=O)N[C@@H](CC(C)C)C(=O)N[C@@H](CO)C(=O)N[C@H](C(=O)O)[C@@H](C)O)C(C)C [Example 49, N^ε24-[(4S)-4-carboxy-4-[[(4S)-4-carboxy-4-[[(4S)-4-carboxy-4-[[(4S)-4-carboxy-4-(17-carboxyheptadecanoylamino)butanoyl]amino]butanoyl]amino]butanoyl]amino]butanoyl]-[Glu15,Glu21,Lys24,Leu27,Ser28]-Glucagon] (H-HSQGTFTSDYSKYLESRRAQEFVK([γGlu-γGlu-γGlu-γGlu-C18 diacid])WLLST-OH) | 45 |
| CC(C)C[C@H](NC(=O)[C@H](Cc1ccc(O)cc1)NC(=O)[C@H](CCCCN)NC(=O)[C@H](CO)NC(=O)[C@H](Cc1ccc(O)cc1)NC(=O)[C@H](CC(=O)O)NC(=O)[C@H](CO)NC(=O)[C@@H](NC(=O)[C@H](Cc1ccccc1)NC(=O)[C@@H](NC(=O)CNC(=O)[C@H](CCC(N)=O)NC(=O)[C@H](CO)NC(=O)[C@@H](N)Cc1c[nH]cn1)[C@@H](C)O)[C@@H](C)O)C(=O)N[C@@H](CC(=O)O)C(=O)N[C@@H](C)C(=O)N[C@@H](CCCNC(=N)N)C(=O)N[C@@H](CCCNC(=N)N)C(=O)N[C@@H](C)C(=O)N[C@@H](CCC(N)=O)C(=O)N[C@@H](CC(=O)O)C(=O)N[C@@H](Cc1ccccc1)C(=O)N[C@H](C(=O)N[C@@H](CCCCNC(=O)CC[C@H](NC(=O)CC[C@H](NC(=O)COCCOCCNC(=O)COCCOCCNC(=O)CC[C@H](NC(=O)CCCCCCCCCCCCCCC(=O)O)C(=O)O)C(=O)O)C(=O)O)C(=O)N[C@@H](Cc1c[nH]c2ccccc12)C(=O)N[C@@H](CC(C)C)C(=O)N[C@@H](CC(C)C)C(=O)N[C@@H](CO)C(=O)N[C@H](C(=O)O)[C@@H](C)O)C(C)C [Example 83, N^ε24-[(4S)-4-carboxy-4-[[(4S)-4-carboxy-4-[[2-[2-[2-[[2-[2-[2-[[(4S)-4-carboxy-4-(15-carboxypentadecanoylamino)butanoyl]amino]ethoxy]ethoxy]acetyl]amino]ethoxy]ethoxy]acetyl]amino]butanoyl]amino]butanoyl]-[Ala16,Lys24,Leu27,Ser28]-Glucagon] | 45 |
| CC(C)C[C@H](NC(=O)[C@H](Cc1c[nH]c2ccccc12)NC(=O)[C@H](CCCCNC(=O)CC[C@H](NC(=O)CC[C@H](NC(=O)COCCOCCNC(=O)COCCOCCNC(=O)CC[C@H](NC(=O)CCCCCCCCCCCCCCCCC(=O)O)C(=O)O)C(=O)O)C(=O)O)NC(=O)[C@@H](NC(=O)[C@H](Cc1ccccc1)NC(=O)[C@H](CC(=O)O)NC(=O)[C@H](CCC(N)=O)NC(=O)[C@H](C)NC(=O)[C@H](CCCNC(=N)N)NC(=O)[C@H](CCCNC(=N)N)NC(=O)[C@@H](NC(=O)[C@H](CC(=O)O)NC(=O)[C@H](CC(C)C)NC(=O)[C@H](Cc1ccc(O)cc1)NC(=O)[C@H](CCCCN)NC(=O)[C@H](CO)NC(=O)[C@H](Cc1ccc(O)cc1)NC(=O)[C@H](CC(=O)O)NC(=O)[C@H](CO)NC(=O)[C@@H](NC(=O)[C@H](Cc1ccccc1)NC(=O)[C@@H](NC(=O)CNC(=O)[C@H](CCC(N)=O)NC(=O)[C@H](CO)NC(=O)[C@@H](N)Cc1c[nH]cn1)[C@@H](C)O)[C@@H](C)O)C(C)C)C(C)C)C(=O)N[C@@H](CC(C)C)C(=O)N[C@@H](CO)C(=O)N[C@H](C(=O)O)[C@@H](C)O [Example 30, N^ε24-[(4S)-4-carboxy-4-[[(4S)-4-carboxy-4-[[2-[2-[2-[[2-[2-[2-[[(4S)-4-carboxy-4-(17-carboxyheptadecanoylamino)butanoyl]amino]ethoxy]ethoxy]acetyl]amino]ethoxy]ethoxy]acetyl]amino]butanoyl]amino]butanoyl]-[Val16,Lys24,Leu27,Ser28]-Glucagon] | 5.3 |
| CC(C)C[C@H](NC(=O)[C@H](CC(=O)O)NC(=O)[C@H](CC(C)C)NC(=O)[C@H](Cc1ccc(O)cc1)NC(=O)[C@H](CCCNC(=N)N)NC(=O)[C@H](CO)NC(=O)[C@H](Cc1ccc(O)cc1)NC(=O)[C@H](CC(=O)O)NC(=O)[C@H](CO)NC(=O)[C@@H](NC(=O)[C@H](Cc1ccccc1)NC(=O)[C@@H](NC(=O)CNC(=O)[C@H](CCC(N)=O)NC(=O)[C@H](CO)NC(=O)[C@@H](N)Cc1c[nH]cn1)[C@@H](C)O)[C@@H](C)O)C(=O)N[C@@H](CCCNC(=N)N)C(=O)N[C@@H](CCCNC(=N)N)C(=O)N[C@@H](C)C(=O)N[C@@H](CCC(N)=O)C(=O)N[C@@H](CC(=O)O)C(=O)N[C@@H](Cc1ccccc1)C(=O)N[C@H](C(=O)N[C@@H](CCCCNC(=O)CC[C@H](NC(=O)CC[C@H](NC(=O)COCCOCCNC(=O)COCCOCCNC(=O)CC[C@H](NC(=O)CCCCCCCCCCCCCCCCC(=O)O)C(=O)O)C(=O)O)C(=O)O)C(=O)N[C@@H](Cc1c[nH]c2ccccc12)C(=O)N[C@@H](CC(C)C)C(=O)N[C@@H](CC(C)C)C(=O)N[C@H](C(=O)N[C@H](C(=O)O)[C@@H](C)O)[C@@H](C)O)C(C)C [Example 19, N^ε24-[(4S)-4-carboxy-4-[[(4S)-4-carboxy-4-[[2-[2-[2-[[2-[2-[2-[[(4S)-4-carboxy-4-(17-carboxyheptadecanoylamino)butanoyl]amino]ethoxy]ethoxy]acetyl]amino]ethoxy]ethoxy]acetyl]amino]butanoyl]amino]butanoyl]-[Arg^12,Leu^16,Lys^24,Leu^27,Thr^28]-Glucagon] (H-HSQGTFTSDYSRYLDLRRAQDFVK([γGlu-γGlu-AEEA-AEEA-γGlu-C18 diacid])WLLTT-OH) | 8 |
| CC(C)C[C@H](NC(=O)[C@H](Cc1c[nH]c2ccccc12)NC(=O)[C@H](CCCCNC(=O)CC[C@H](NC(=O)CC[C@H](NC(=O)COCCOCCNC(=O)COCCOCCNC(=O)CC[C@H](NC(=O)CCCCCCCCCCCCCCCCC(=O)O)C(=O)O)C(=O)O)C(=O)O)NC(=O)[C@@H](NC(=O)[C@H](Cc1ccccc1)NC(=O)[C@H](CC(=O)O)NC(=O)[C@H](CCC(N)=O)NC(=O)[C@H](C)NC(=O)[C@H](CCCNC(=N)N)NC(=O)[C@H](CCCNC(=N)N)NC(=O)[C@@H](NC(=O)[C@H](CC(=O)O)NC(=O)[C@H](CC(C)C)NC(=O)[C@H](Cc1ccc(O)cc1)NC(=O)[C@H](CCCNC(=N)N)NC(=O)[C@H](CO)NC(=O)[C@H](Cc1ccc(O)cc1)NC(=O)[C@H](CC(=O)O)NC(=O)[C@H](CO)NC(=O)[C@@H](NC(=O)[C@H](Cc1ccccc1)NC(=O)[C@@H](NC(=O)CNC(=O)[C@H](CCC(N)=O)NC(=O)[C@H](CO)NC(=O)[C@@H](N)Cc1c[nH]cn1)[C@@H](C)O)[C@@H](C)O)[C@@H](C)O)C(C)C)C(=O)N[C@@H](CC(C)C)C(=O)N[C@@H](CC(N)=O)C(=O)N[C@H](C(=O)O)[C@@H](C)O [Example 10, N^ε24-[(4S)-4-carboxy-4-[[(4S)-4-carboxy-4-[[2-[2-[2-[[2-[2-[2-[[(4S)-4-carboxy-4-(17-carboxyheptadecanoylamino)butanoyl]amino]ethoxy]ethoxy]acetyl]amino]ethoxy]ethoxy]acetyl]amino]butanoyl]amino]butanoyl]-[Arg^12,Thr^16,Lys^24,Leu^27]-Glucagon] (H-HSQGTFTSDYSRYLDTRRAQDFVK([γGlu-γGlu-AEEA-AEEA-γGlu-C18 diacid])WLLNT-OH) | 45 |
